# From a collection of fitness landscapes (doi:10.1126/science.1257360)
# This is one part of the list.
# B1: PhoQ; a variant is named by its letters at X, in order, P23837 (parent)
# chain: MKKLLRLFFPLSLRVRFLLATAAVVLVLSLAYGMVALIGYSVSFDKTTFRLLRGESNLFYTLAKWENNKLHVELPENIDKQSPTMTLIYDENGQLLWAQRDVPWLMKMIQPDWLKSNGFHEIEADVNDTSLLLSGDHSIQQQLQEVREDDDDAEMTHSVAVNVYPATSRMPKLTIVVVDTIPVELKSSYMVWSWFIYVLSANLLLVIPLLWVAAWWSLRPIEALAKEVRELEEHNRELLNPATTRELTSLVRNLNRLLKSERERYDKYRTTLTDLTHSLKTPLXXLQXXLRSLRSEKMSVSDAEPVMLEQISRISQQIGYYLHRASMRGGTLLSRELHPVAPLLDNLTSALNKVYQRKGVNISLDISPEISFVGEQNDFVEVMGNVLDNACKYCLEFVEISARQTDEHLYIVVEDDGPGIPLSKREVIFDRGQRVDTLRPGQGVGLAVAREITEQYEGKIVAGESMLGGARMEVIFGRQHSAPKDE
# Variants of: B1
# Test: enrichment ratio after two sorts for PhoP signalling (ratio (wild type AVST 3.29)); higher = more functional
# Conditions: with PhoP (E. coli)
row,Variant,enrichment ratio
1,TACW,6.03
2,VHDW,≤ 0.25
3,FPGD,≤ 0.25
4,QETQ,≤ 0.25
5,HQQR,≤ 0.25
6,VQYS,≤ 0.25
7,PHCA,≤ 0.25
8,FYWR,≤ 0.25
9,YMRW,≤ 0.25
10,IQWR,≤ 0.25
11,GVSG,7.26
12,ATVT,≤ 0.25
13,AEPV,≤ 0.25
14,LMLM,≤ 0.25
15,YYNP,≤ 0.25
16,TSIY,≤ 0.25
17,ASWQ,≤ 0.25
18,PNQW,≤ 0.25
19,SYTK,≤ 0.25
20,EFLI,≤ 0.25
21,FMFY,≤ 0.25
22,ESMV,≤ 0.25
23,CLDL,≤ 0.25
24,KNGN,≤ 0.25

row,Variant,enrichment ratio
1,TYYR,≤ 0.25
2,QVMK,≤ 0.25
3,QVFW,≤ 0.25
4,HMSF,≤ 0.25
5,RRIG,≤ 0.25
6,IYLG,≤ 0.25
7,RIYS,≤ 0.25
8,FSIW,≤ 0.25
9,ECTP,≤ 0.25
10,LWIY,≤ 0.25
11,KHSH,≤ 0.25
12,DLTA,≤ 0.25
13,TNSH,10.4
14,CLTS,≤ 0.25
15,DVYE,≤ 0.25
16,LLIQ,≤ 0.25
17,DKFG,≤ 0.25
18,EYPK,≤ 0.25
19,ALKM,≤ 0.25
20,LFHY,≤ 0.25
21,TYWA,≤ 0.25
22,AWYV,≤ 0.25
23,AFAV,≤ 0.25
24,RVIY,≤ 0.25

row,Variant,enrichment ratio
1,SAGW,≤ 0.25
2,MGRW,≤ 0.25
3,KGHT,≤ 0.25
4,MGFF,≤ 0.25
5,NMFV,≤ 0.25
6,SVQT,≤ 0.25
7,RNTI,≤ 0.25
8,QRWH,≤ 0.25
9,SQTN,8.46
10,IRRG,≤ 0.25
11,GYMV,0.333
12,VWLL,≤ 0.25
13,QYYF,≤ 0.25
14,ARLA,≤ 0.25
15,FHDD,≤ 0.25
16,IWDH,≤ 0.25
17,NNGL,≤ 0.25
18,ANHQ,≤ 0.25
19,RNVL,≤ 0.25
20,FSGQ,≤ 0.25
21,MAYA,≤ 0.25
22,QPAD,≤ 0.25
23,NYLG,≤ 0.25
24,IYTS,≤ 0.25

row,Variant,enrichment ratio
1,VVYG,≤ 0.25
2,RVQN,≤ 0.25
3,PHYE,≤ 0.25
4,AGVV,10.2
5,YVWF,≤ 0.25
6,NMAW,≤ 0.25
7,PNGE,≤ 0.25
8,GMRA,≤ 0.25
9,GHNQ,≤ 0.25
10,FSAT,≤ 0.25
11,DFSI,≤ 0.25
12,DQHN,≤ 0.25
13,RFTE,≤ 0.25
14,SKFK,≤ 0.25
15,WQAM,≤ 0.25
16,RNVM,≤ 0.25
17,VYHA,≤ 0.25
18,DSMT,≤ 0.25
19,WRYM,≤ 0.25
20,GYPW,≤ 0.25
21,HNEI,≤ 0.25
22,WDIP,≤ 0.25
23,RWTG,≤ 0.25
24,YVSM,0.373

row,Variant,enrichment ratio
1,KFLH,≤ 0.25
2,ERVS,≤ 0.25
3,IWGP,≤ 0.25
4,PMPC,≤ 0.25
5,SMNF,5.94
6,GPRW,≤ 0.25
7,HKVC,≤ 0.25
8,QARQ,≤ 0.25
9,TSYS,5.38
10,HPVM,≤ 0.25
11,TILE,≤ 0.25
12,AVVY,≤ 0.25
13,QGLL,10.4
14,NLFK,≤ 0.25
15,DHHR,≤ 0.25
16,MYMM,≤ 0.25
17,WCLG,≤ 0.25
18,GFIC,≤ 0.25
19,YCFA,≤ 0.25
20,MISA,0.801
21,GKYH,≤ 0.25
22,HDHM,≤ 0.25
23,TLPH,≤ 0.25
24,HNIM,≤ 0.25

row,Variant,enrichment ratio
1,CYLH,≤ 0.25
2,DQNP,≤ 0.25
3,RPAI,≤ 0.25
4,SYEF,≤ 0.25
5,DGFN,≤ 0.25
6,NPHQ,≤ 0.25
7,FICG,1.01
8,PIGS,≤ 0.25
9,MSDA,≤ 0.25
10,QAKP,≤ 0.25
11,MEGW,≤ 0.25
12,LPGG,≤ 0.25
13,SCPL,7.57
14,QDVS,≤ 0.25
15,ISCY,≤ 0.25
16,YFWI,≤ 0.25
17,HPGD,≤ 0.25
18,LRCD,≤ 0.25
19,VYWD,≤ 0.25
20,VACW,≤ 0.25
21,NEIW,≤ 0.25
22,TNYV,0.521
23,FRVL,≤ 0.25
24,IHSH,≤ 0.25

row,Variant,enrichment ratio
1,IINV,≤ 0.25
2,VAEW,≤ 0.25
3,YVNI,≤ 0.25
4,KIFA,≤ 0.25
5,NNMH,≤ 0.25
6,VDWP,≤ 0.25
7,EFMS,≤ 0.25
8,MYTD,≤ 0.25
9,KCRV,≤ 0.25
10,WLRL,≤ 0.25
11,SAKT,≤ 0.25
12,IVRR,≤ 0.25
13,HWLW,≤ 0.25
14,MGLI,14.4
15,MYKC,≤ 0.25
16,EQLY,≤ 0.25
17,WPVC,≤ 0.25
18,INMT,8.21
19,AMSG,10.7
20,KIPG,≤ 0.25
21,KCHH,≤ 0.25
22,THIY,≤ 0.25
23,HCMS,≤ 0.25
24,HTAL,≤ 0.25

row,Variant,enrichment ratio
1,DALN,≤ 0.25
2,FPWN,≤ 0.25
3,LIHY,≤ 0.25
4,CKIH,≤ 0.25
5,GIHL,≤ 0.25
6,FGHW,≤ 0.25
7,MINN,≤ 0.25
8,MQTH,≤ 0.25
9,TRMV,3.28
10,KSPT,≤ 0.25
11,YMMR,≤ 0.25
12,ITEN,≤ 0.25
13,KGML,≤ 0.25
14,PRCI,≤ 0.25
15,GCFQ,≤ 0.25
16,GGLP,≤ 0.25
17,SDWA,≤ 0.25
18,MIIV,≤ 0.25
19,ITER,≤ 0.25
20,KICM,≤ 0.25
21,VSDQ,≤ 0.25
22,PTQS,≤ 0.25
23,NWLF,≤ 0.25
24,FINK,≤ 0.25

row,Variant,enrichment ratio
1,MFDR,≤ 0.25
2,DHDN,≤ 0.25
3,IYEY,≤ 0.25
4,CFTS,≤ 0.25
5,LCNG,≤ 0.25
6,GSVE,≤ 0.25
7,DIAF,≤ 0.25
8,FHDA,≤ 0.25
9,VYFR,≤ 0.25
10,QKCY,≤ 0.25
11,TWHR,≤ 0.25
12,KKAY,≤ 0.25
13,MACH,≤ 0.25
14,IWWH,≤ 0.25
15,GPPY,≤ 0.25
16,MQRF,≤ 0.25
17,EFNY,≤ 0.25
18,HWQD,≤ 0.25
19,DLCS,≤ 0.25
20,NCVR,≤ 0.25
21,YNHK,≤ 0.25
22,ADFI,≤ 0.25
23,YDLH,≤ 0.25
24,RIGF,≤ 0.25

row,Variant,enrichment ratio
1,STPD,≤ 0.25
2,ICMN,3.55
3,CIAG,≤ 0.25
4,FSMG,4.8
5,MYAM,≤ 0.25
6,SVEK,≤ 0.25
7,AGFC,≤ 0.25
8,VHVS,≤ 0.25
9,TNSD,1.64
10,SGLE,4.04
11,SKWF,≤ 0.25
12,DADP,≤ 0.25
13,DHQQ,≤ 0.25
14,SSSS,11.1
15,ETRT,≤ 0.25
16,ASTN,6.56
17,GSDQ,≤ 0.25
18,GRHC,≤ 0.25
19,TKDI,≤ 0.25
20,YTAI,≤ 0.25
21,NWCG,≤ 0.25
22,YNCV,0.516
23,HGSK,0.39
24,AQCC,32.6

row,Variant,enrichment ratio
1,YHSA,≤ 0.25
2,VGPC,≤ 0.25
3,RYMQ,5.92
4,GSMW,≤ 0.25
5,TQNV,14.2
6,WRLQ,≤ 0.25
7,QTCW,≤ 0.25
8,ANAN,4.98
9,EPKR,≤ 0.25
10,KDRD,≤ 0.25
11,QNSK,≤ 0.25
12,LYSD,≤ 0.25
13,GTVK,≤ 0.25
14,QDPI,≤ 0.25
15,WQPK,≤ 0.25
16,YKKP,≤ 0.25
17,VEYP,≤ 0.25
18,MSEK,≤ 0.25
19,NHAE,≤ 0.25
20,NMDN,≤ 0.25
21,EHSV,≤ 0.25
22,WHCV,≤ 0.25
23,EKRC,≤ 0.25
24,VSTI,2.9

row,Variant,enrichment ratio
1,TRAL,1.23
2,IQME,≤ 0.25
3,GGCS,13.1
4,DHSN,≤ 0.25
5,PCLS,≤ 0.25
6,VLEF,≤ 0.25
7,MSGI,17.5
8,NEHN,≤ 0.25
9,RWFG,≤ 0.25
10,NPHE,≤ 0.25
11,PDRL,≤ 0.25
12,FMSL,≤ 0.25
13,KAEN,≤ 0.25
14,IPIP,≤ 0.25
15,EECI,≤ 0.25
16,RLQA,≤ 0.25
17,TMLW,≤ 0.25
18,TMKH,≤ 0.25
19,HSYC,≤ 0.25
20,YWQV,≤ 0.25
21,HWTV,≤ 0.25
22,QCFP,≤ 0.25
23,DNNR,≤ 0.25
24,QGPL,≤ 0.25

row,Variant,enrichment ratio
1,SHAT,≤ 0.25
2,EGHH,≤ 0.25
3,NLEL,≤ 0.25
4,MPWY,≤ 0.25
5,FCRC,≤ 0.25
6,DSET,≤ 0.25
7,PGAW,≤ 0.25
8,VCHG,≤ 0.25
9,FCLR,≤ 0.25
10,VINM,≤ 0.25
11,ALRD,≤ 0.25
12,PWFF,≤ 0.25
13,QREF,≤ 0.25
14,WSTQ,≤ 0.25
15,VKGQ,≤ 0.25
16,NLSS,≤ 0.25
17,PSVW,≤ 0.25
18,WDNG,≤ 0.25
